Where “and” joins values, the source holds several entries; their conditions need not be identical. Equal entries are not always repeated. The shares of active, inactive and inconclusive entries below differ from those in the screen. Potencies of inconclusive entries are doubtful fits and often do not repeat. Calls of active or inactive are those of the source. Calls come from the whole dose curve; as a rule, active = well fitted curve in the direction sought with a large enough effect in the repeat runs; inconclusive = weak or mixed curves; inactive = no such curve, though single readings can be large; an effect the other way counts as inactive or inconclusive.
Experiments:
[1] = molecular target: Cytochrome P450 1A2 (Homo sapiens) (UniProt P05177); assay: Cytochrome P450 Family 1 Subfamily A Member 2 (CYP1A2) small molecule antagonists: luciferase reporter qHTS assay (AID 1671199)
Outline: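 Luminescence readout (relative luminescence units) after luciferin detection reagent, 20 min RT. Preceded by 1 h room-temperature CYP1A2 reaction with NADPH regeneration solution following 10 min compound preincubation with enzyme and proluciferin substrate. Furafylline positive control.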

[2] = molecular target: Cytochrome P450 3A4 (Homo sapiens) (UniProt P08684); assay: Cytochrome P450 Family 3 Subfamily A Member 4 (CYP3A4) small molecule antagonists: luciferase reporter qHTS assay (AID 1671201)
Outline: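 P450-Glo CYP3A4 system with proluciferin substrate; compounds preincubated 10 min RT with enzyme-substrate mix, then NADPH regeneration added for 1 h RT. Detection reagent 20 min, luminescence read as relative luminescence units.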

[3] = molecular target: Voltage-gated inwardly rectifying potassium channel KCNH2 (Homo sapiens) (UniProt Q12809); assay: Human Ether-a-go-go-Related Gene (hERG) channel small molecule antagonists: fluorescence cell-based qHTS assay (AID 1671200)
Outline: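 U2OS cells expressing the channel were plated at 1000 cells/well, incubated overnight at 37 C, then loaded with FluxOR II thallium-sensitive dye for 1 h at room temperature in the dark, with a further 10 min at room temperature before stimulation.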
Note: nearly all actives have a fitted effect of over 50% in size.
Potency is the fitted concentration of half-maximal effect; tags give direction and shape of the fitted curve.

Chain of UniProt P05177 (P05177 whole entry, looked up): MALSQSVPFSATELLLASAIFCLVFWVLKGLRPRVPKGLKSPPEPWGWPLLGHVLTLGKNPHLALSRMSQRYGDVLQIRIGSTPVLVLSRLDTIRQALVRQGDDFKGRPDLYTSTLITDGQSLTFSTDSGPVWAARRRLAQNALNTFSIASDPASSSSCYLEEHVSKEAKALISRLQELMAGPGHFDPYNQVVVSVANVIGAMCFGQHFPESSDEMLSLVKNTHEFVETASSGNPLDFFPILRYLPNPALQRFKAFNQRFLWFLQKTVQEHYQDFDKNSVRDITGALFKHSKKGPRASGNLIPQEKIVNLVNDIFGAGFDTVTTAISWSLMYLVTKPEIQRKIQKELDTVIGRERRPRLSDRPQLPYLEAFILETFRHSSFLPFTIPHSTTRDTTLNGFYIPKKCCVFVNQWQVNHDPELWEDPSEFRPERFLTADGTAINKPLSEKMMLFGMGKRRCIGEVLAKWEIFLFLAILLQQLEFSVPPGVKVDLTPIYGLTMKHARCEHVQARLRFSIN
Chain of UniProt Q12809 (Q12809 whole entry, looked up): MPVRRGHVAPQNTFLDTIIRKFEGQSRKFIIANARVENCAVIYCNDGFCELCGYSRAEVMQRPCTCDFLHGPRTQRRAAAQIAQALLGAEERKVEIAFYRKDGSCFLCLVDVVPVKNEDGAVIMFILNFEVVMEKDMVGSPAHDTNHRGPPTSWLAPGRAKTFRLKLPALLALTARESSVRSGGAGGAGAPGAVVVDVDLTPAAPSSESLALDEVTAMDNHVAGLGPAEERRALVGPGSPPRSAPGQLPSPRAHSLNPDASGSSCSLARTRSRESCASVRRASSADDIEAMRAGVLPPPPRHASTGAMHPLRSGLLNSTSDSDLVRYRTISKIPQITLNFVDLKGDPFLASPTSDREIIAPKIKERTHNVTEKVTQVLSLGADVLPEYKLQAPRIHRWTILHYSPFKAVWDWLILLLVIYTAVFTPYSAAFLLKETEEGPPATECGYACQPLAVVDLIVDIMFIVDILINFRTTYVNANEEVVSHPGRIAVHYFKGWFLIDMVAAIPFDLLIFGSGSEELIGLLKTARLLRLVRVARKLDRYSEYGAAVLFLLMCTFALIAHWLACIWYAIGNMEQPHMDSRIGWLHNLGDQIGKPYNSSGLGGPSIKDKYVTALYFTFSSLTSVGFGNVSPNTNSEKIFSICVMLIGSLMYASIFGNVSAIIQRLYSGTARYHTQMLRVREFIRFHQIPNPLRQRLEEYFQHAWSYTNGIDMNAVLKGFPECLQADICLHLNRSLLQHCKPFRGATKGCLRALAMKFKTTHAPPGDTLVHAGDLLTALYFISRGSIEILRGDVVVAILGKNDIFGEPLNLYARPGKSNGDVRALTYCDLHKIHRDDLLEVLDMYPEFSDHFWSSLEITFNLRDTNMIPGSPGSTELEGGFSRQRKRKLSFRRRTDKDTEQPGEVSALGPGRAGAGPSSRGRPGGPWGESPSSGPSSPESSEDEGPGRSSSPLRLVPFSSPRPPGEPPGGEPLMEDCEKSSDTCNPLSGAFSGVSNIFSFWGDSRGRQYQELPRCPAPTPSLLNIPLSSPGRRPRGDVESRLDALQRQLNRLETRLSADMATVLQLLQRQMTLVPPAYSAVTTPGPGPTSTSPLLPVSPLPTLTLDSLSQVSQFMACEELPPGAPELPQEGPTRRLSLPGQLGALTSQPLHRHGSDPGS
Chain of UniProt P08684 (P08684 whole entry, looked up): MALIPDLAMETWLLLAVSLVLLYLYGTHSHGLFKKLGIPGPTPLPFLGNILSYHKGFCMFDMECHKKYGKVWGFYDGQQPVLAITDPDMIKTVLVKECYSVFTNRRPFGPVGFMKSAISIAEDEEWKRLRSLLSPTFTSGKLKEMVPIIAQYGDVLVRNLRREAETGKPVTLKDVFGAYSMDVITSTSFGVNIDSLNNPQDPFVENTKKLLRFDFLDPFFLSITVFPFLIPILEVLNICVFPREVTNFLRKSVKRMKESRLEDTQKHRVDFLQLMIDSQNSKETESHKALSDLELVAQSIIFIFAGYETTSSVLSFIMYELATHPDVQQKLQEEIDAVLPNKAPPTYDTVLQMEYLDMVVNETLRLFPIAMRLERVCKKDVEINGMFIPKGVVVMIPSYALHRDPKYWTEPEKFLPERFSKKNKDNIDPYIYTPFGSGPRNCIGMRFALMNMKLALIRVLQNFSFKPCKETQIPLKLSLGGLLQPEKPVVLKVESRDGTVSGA

| Structure (SMILES) | Potency [1] | Potency [2] | Potency [3] |
| --- | --- | --- | --- |
| CC(C)(c1ccccc1)c1ccc(Nc2ccc(C(C)(C)c3ccccc3)cc2)cc1 | inconclusive: 63.3 µM [inhibitor, partial curve, poor fit] | inconclusive: 10 µM [inhibitor, full curve, poor fit] and inconclusive: 8.94 µM [inhibitor, full curve] | – |
| CC(C)(C)CC(C)(C)c1ccccc1O | active: 35.8 µM | active: 63.6 µM | – |
| Cc1ccc(S(=O)(=O)Oc2ccc(N=Nc3ccc(-c4ccc(N=Nc5c(O)ccc6cc(S(=O)(=O)O)cc(S(=O)(=O)O)c56)c(C)c4)cc3C)cc2)cc1 | active: 56.6 µM and active: 23.2 µM | inconclusive: 35.7 µM [inhibitor, partial curve] and inconclusive: 20.7 µM [inhibitor, partial curve] | – |
| Cn1cc(C(=O)[C@@H]2CCc3nc[nH]c3C2)c2ccccc21 | active: 17.4 µM | – | inconclusive: 26.8 µM [inhibitor, partial curve, poor fit] |
| CCCCC(CC)COC(=O)c1ccc(N(C)C)cc1 (stereo not drawn) | active: 12.7 µM and active: 7.1 µM and active: 4.56 µM | – | inconclusive: 15.6 µM [inhibitor, full curve] and inconclusive: 23.9 µM [inhibitor, partial curve, poor fit] |
| O=S1(=O)CC(Cl)(Cl)C(Cl)(Cl)C1 | active: 22.4 µM | active: 25.2 µM | – |
| CC(C)CCCCCCc1ccc(O)cc1 | inconclusive: 22.4 µM [inhibitor, partial curve] | inconclusive: 89.4 µM [inhibitor, single point] | – |
| Nc1cc([N+](=O)[O-])ccc1O | inconclusive: 35.4 µM [inhibitor, partial curve] | inactive | – |
| C=CC(=O)OCCOCCOCCOCCOC(=O)C=C | inconclusive: 45 µM [inhibitor, partial curve] and inconclusive: 39.6 µM [inhibitor, partial curve] | inconclusive: 40.1 µM [inhibitor, partial curve] and inconclusive: 35.3 µM [inhibitor, partial curve] | – |
| Cc1cc(O)c2ccccc2c1O | – | – | active: 3.38 µM |
| O=CCc1ccccc1 | inconclusive: 35.3 µM [inhibitor] | inconclusive: 35.6 µM [inhibitor, partial curve] | – |
| O=Nc1ccc(Nc2ccccc2)cc1 | – | – | inconclusive: 49 µM [inhibitor, partial curve, poor fit] |
| COc1ccc(-n2nc(CCC(=O)N(C)O)cc2-c2ccc(Cl)cc2)cc1 | inconclusive: 24.5 µM [inhibitor, partial curve, poor fit] | – | inconclusive: 21.3 µM [inhibitor, partial curve] |
| CCCCCCCCCCCCCCNCCO | – | – | inconclusive: 7.56 µM [inhibitor, full curve] |
| CN1CCN(c2ccccc2/C=C2\SCCN(c3ccc(Cl)c(Cl)c3)C2=O)CC1 | inconclusive: 63.3 µM [inhibitor, partial curve] | active: 3.99 µM | – |
| C[C@@H]1CC(=O)NN=C1c1ccc(NN=C(C#N)C#N)cc1 | – | – | inconclusive: 7.56 µM [inhibitor, partial curve] and inconclusive: 5.35 µM [inhibitor, full curve] |
| C#CC1(O)CC[C@H]2[C@@H]3CCC4=CCCC[C@@H]4[C@H]3CC[C@@]21C (stereo partly drawn) | inconclusive: 24.5 µM [inhibitor, partial curve] | – | inconclusive: 21.9 µM [inhibitor, partial curve] and inconclusive: 26.8 µM [inhibitor, partial curve, poor fit] |
| CC(=O)O[C@]1(C(C)=O)CC[C@H]2[C@@H]3C=C(Cl)C4=CC(=O)[C@@H]5C[C@@H]5[C@]4(C)[C@H]3CC[C@@]21C | inconclusive: 39.9 µM [inhibitor, partial curve] | – | inconclusive: 54.9 µM [inhibitor] |
| CCCCCC(=O)O[C@]1(C(C)=O)CC[C@H]2[C@@H]3CCC4=CC(=O)CC[C@]4(C)[C@H]3CC[C@@]21C | inconclusive: 62.8 µM [inhibitor, partial curve, poor fit] and inactive | – | active: 19.4 µM and inconclusive: 16.9 µM [inhibitor, partial curve] |
| Cc1ccc(C(C)(C)C)c(O)c1 | inconclusive: 30.7 µM [inhibitor, partial curve] | inconclusive: 86.5 µM [inhibitor, single point] | – |
| CC1=C(C(=O)OC(C)C)C(c2cccc([N+](=O)[O-])c2)C(C(=O)OC2CN(C(c3ccccc3)c3ccccc3)C2)=C(N)N1 (stereo not drawn) | inconclusive: 27.5 µM [inhibitor, partial curve] | – | inconclusive: 15.1 µM [inhibitor, partial curve] |
